# Laboratory results: the supplement of paper PMC3724861
# Some of the results follow.
# Tested on: T1, Caupolican (Caup) homeodomain DNA-binding domain
# T1 sequence: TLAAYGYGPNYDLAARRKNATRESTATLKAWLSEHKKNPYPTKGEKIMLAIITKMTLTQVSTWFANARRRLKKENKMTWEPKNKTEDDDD
# Assay: PBM E-score (8-mer, recovered from the published 9-mer minima) (E-score (dimensionless, -0.5 to 0.5)); Drosophila protein; higher = stronger relative binding preference, active = 0.31 or more
# How it was run: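 An enrichment score, with higher meaning stronger, expresses relative binding preference for each short DNA word. The protein used was Caup's homeodomain DNA-binding domain (residues 214-303), produced by in vitro transcription and translation and tested at 100 nM on custom-designed protein binding microarrays. The 8-mer values were recovered from published 9-mer scores, each equal to the lower of its two constituent 8-mer scores.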
row,Sequence,PBM E-score
1,GTGTACGA,inactive: 0.226
2,CGGTCCGA,inactive: -0.17
3,AAGTGTAG,inactive: 0.17
4,ACTCTTAC,inactive: 0.16
5,AGAAGCGC,inactive: -0.177
6,AATTGAAG,inactive: 0.00027
7,ACTAGGAG,inactive: 0.0325
8,GACGCAGC,inactive: -0.139
9,AATAGGAG,inactive: -0.0687
10,TAGAAAGA,inactive: -0.00849
11,AATTTCCG,inactive: 0.0416
12,ATATCAGG,inactive: 0.132
13,GGGACCCA,inactive: -0.239
14,ACCCTCAA,inactive: -0.0681
15,CGAGATGC,inactive: -0.0336
16,ATCCTTGA,inactive: -0.0201
17,GGTGGGAA,inactive: -0.146
18,CCTCCGCC,inactive: -0.233
19,AATAGCTG,inactive: 0.0281
20,CACGCGCA,inactive: -0.202
21,ATTTCAAA,inactive: 0.0885
22,ACGACTGA,inactive: 0.0172
23,CAACTCGA,inactive: 0.0326
24,AGTAGGCG,inactive: -0.0764
25,CTATAGTA,inactive: 0.108

row,Sequence,PBM E-score
1,TGAAACCA,inactive: 0.0538
2,ATTGTCTC,inactive: 0.0708
3,CGCCATGA,inactive: -0.14
4,GGGATCAA,inactive: -0.0278
5,GACGGACA,inactive: 0.153
6,AGCCTTAT,≥ 0.0192
7,GAGAGAGC,inactive: -0.176
8,CGGCCGAA,inactive: -0.108
9,CTCAAGCC,inactive: -0.209
10,CGGTGGAG,inactive: -0.186
11,GTTTCGGA,≥ 0.125
12,GGTAGCAC,inactive: -0.172
13,AGCATACA,inactive: 0.202
14,GAATGCGA,inactive: -0.0148
15,AGTAGCTA,inactive: 0.118
16,CTATCCAG,inactive: -0.0515
17,CACAACGC,inactive: -0.0274
18,CCTCCCAG,inactive: -0.242
19,ATTATTTC,inactive: 0.109
20,AGGCCGTG,inactive: -0.0761
21,AAGTAATT,inactive: 0.18
22,CCCAGCGC,inactive: -0.298
23,AATTGCAA,≥ 0.164
24,CATGCGCC,inactive: -0.0376
25,CAATCAGC,inactive: -0.0209

row,Sequence,PBM E-score
1,AGTTCATG,inactive: 0.083
2,AACAGGTT,≥ 0.238
3,AATTGATG,inactive: 0.16
4,ATGACGTC,inactive: 0.00361
5,AACCCCTG,inactive: -0.133
6,TTCGCAAA,inactive: 0.0578
7,ATCTAAAC,inactive: -0.00073
8,GCAACGAA,inactive: 0.0498
9,AAGGTCTC,inactive: -0.0943
10,ACGAACGA,inactive: 0.0681
11,AGAATATC,inactive: 0.00783
12,AGGAGAAT,inactive: -0.00131
13,AGTTGATC,inactive: 0.0269
14,ACTGCCAA,inactive: 0.0239
15,AGACATGG,active: 0.329
16,GTTTGTGA,inactive: 0.0985
17,CCGATAGG,inactive: -0.0503
18,AACTGAGC,inactive: -0.17
19,ATCAATGG,inactive: -0.0483
20,CGTCATGC,inactive: -0.0931
21,AGACGTGA,inactive: 0.087
22,ACAAGCGC,inactive: 0.171
23,CTGCCACC,inactive: -0.208
24,ACCGAATC,inactive: 0.0317
25,CAGTCGCA,inactive: -0.143

row,Sequence,PBM E-score
1,ACGCATCT,inactive: 0.0331
2,GCATGTCC,active: 0.31
3,ACGCATAG,inactive: 0.00458
4,ATCGTGTA,active: 0.407
5,CTCGGAAC,inactive: 0.01
6,CTGTTCTA,inactive: 0.127
7,CATGATAA,inactive: 0.219
8,CGGCTCAG,inactive: -0.196
9,TGTAGACA,active: ≥ 0.313
10,ACGCATAT,inactive: 0.103
11,CAATTATG,inactive: 0.161
12,ACTGGCAT,inactive: -0.0433
13,CGGGGCCA,inactive: -0.224
14,CACACCTA,inactive: 0.0328
15,AATCCCAA,inactive: -0.0093
16,ATCAAACA,inactive: 0.282
17,ATATTGAT,≥ 0.165
18,CCTCGTTC,inactive: -0.0243
19,TATTACGA,inactive: 0.162
20,TTTCGAAA,inactive: -0.0687
21,AGCCGATG,inactive: -0.0816
22,AAATTAAC,inactive: 0.125
23,ACGGAGAT,inactive: -0.035
24,ATTAGACA,inactive: 0.258
25,GGGACCAC,inactive: -0.0946

row,Sequence,PBM E-score
1,AGGTACTG,inactive: 0.0558
2,ACTTAATG,inactive: 0.133
3,AACTATTA,inactive: 0.178
4,CCAACGAG,inactive: 0.00173
5,CTGGTCCC,inactive: -0.148
6,ATATGCAA,inactive: 0.123
7,GTCGCTAA,inactive: 0.00491
8,ATATTATG,inactive: 0.258
9,CATCCTCG,inactive: 0.0101
10,CTATTGAG,inactive: 0.0929
11,GATTAATC,inactive: 0.0711
12,AGCGTTCC,inactive: -0.0507
13,ATTTGGTA,≥ 0.155
14,CGATTAAA,inactive: 0.0466
15,GATCTGAC,inactive: 0.0711
16,CTACTCTA,inactive: 0.0158
17,CGGGTAAA,≥ 0.075
18,AGCGCGGC,inactive: -0.184
19,CCCGGGTC,inactive: -0.214
20,ACCGAGGG,inactive: -0.263
21,CCTCACCA,inactive: -0.128
22,AAGAAATG,inactive: 0.0551
23,AGGGCTCG,inactive: -0.241
24,ATTTTTGA,inactive: 0.0958
25,AAGTGGTA,inactive: 0.162

row,Sequence,PBM E-score
1,TATTAATA,inactive: 0.178
2,CCATCGAG,inactive: -0.0133
3,CCGCTCAG,inactive: -0.148
4,CCAACTAC,inactive: 0.0722
5,CTTCGCGC,inactive: -0.0901
6,CAACACGG,inactive: 0.2
7,ACGGACAC,inactive: 0.2
8,CTCCTCGA,inactive: -0.0997
9,CAGCCTAA,inactive: -0.0449
10,AAGGGACT,inactive: -0.042
11,GACACAGA,inactive: 0.155
12,AAGATTCA,inactive: 0.0215
13,AAGACTAT,inactive: 0.0648
14,AATGGTTA,inactive: 0.0863
15,CCACGCCG,inactive: -0.159
16,AGATAATC,inactive: 0.00296
17,GATCCAGA,inactive: 0.00644
18,CAGCGATA,inactive: -0.0916
19,AAGGCAGA,inactive: -0.0313
20,CTCTGGTC,inactive: -0.112
21,GTCTCCAC,inactive: -0.192
22,CCCTATAA,inactive: -0.0217
23,ACGTACTC,inactive: 0.0449
24,CGATCCTC,inactive: 0.00131
25,TCCATAAA,inactive: 0.0501

row,Sequence,PBM E-score
1,CGTGTGAA,inactive: 0.102
2,GCGATCTA,inactive: 0.00363
3,CCAAGGAG,inactive: -0.16
4,CAGGTTCA,inactive: 0.0663
5,CTGGACTA,inactive: -0.0281
6,AGCCATAT,inactive: 0.0268
7,ATCGTGCA,inactive: 0.127
8,ATCGAGAC,inactive: 0.0539
9,AATCTACC,inactive: 0.0581
10,GTCTGTTA,inactive: 0.161
11,GTTCATAA,inactive: 0.11
12,GACACCTA,inactive: 0.147
13,CTATGAAA,inactive: 0.0131
14,ATATAACA,active: 0.372
15,CCATATAC,inactive: 0.171
16,CAGCAGTC,inactive: -0.112
17,AGGGCGGC,inactive: -0.277
18,ACACTTCT,inactive: 0.138
19,ATTGATAG,inactive: 0.0965
20,AACCTTAC,inactive: 0.00708
21,CTGTGGTA,inactive: 0.0585
22,GCCAGAAA,inactive: -0.0768
23,ACTGTCCG,inactive: 0.0148
24,TACAACAA,active: 0.387
25,TGCGTACA,inactive: 0.241

row,Sequence,PBM E-score
1,CGCTGAGA,inactive: -0.154
2,GCATCCAC,inactive: -0.0644
3,GGTTTAAC,inactive: 0.0521
4,ACTTTGGA,inactive: 0.0867
5,CTGGGAAC,inactive: 0.0198
6,AGTATACA,inactive: 0.309
7,ACTGTTTG,inactive: 0.184
8,GACTTAAA,inactive: 0.0556
9,ACTCTCTC,inactive: -0.0355
10,ATGCGTTG,inactive: 0.0845
11,AATTGTAC,inactive: 0.258
12,ACGGCCCG,inactive: -0.136
13,CAGAGCAG,inactive: -0.0123
14,ACAAGAAT,inactive: 0.307
15,CTTAAGCC,inactive: -0.197
16,CCCAACGC,inactive: -0.102
17,ACTTCACA,inactive: 0.0893
18,CAACATAC,inactive: 0.302
19,GAGTGCGA,inactive: -0.149
20,GTCCCCCA,inactive: -0.271
21,CCTAAGAA,inactive: 0.0139
22,ATATTCAA,inactive: 0.119
23,GGACAAGA,inactive: 0.264
24,ACCGGATC,inactive: 0.0436
25,CCACGTAA,inactive: -0.0791

row,Sequence,PBM E-score
1,GCAATGCC,inactive: -0.134
2,GATAGTCC,inactive: 0.0462
3,AATTAGAT,inactive: 0.154
4,GCATCGCA,inactive: -0.205
5,GCCGAAAC,inactive: -0.0529
6,AACGATAC,inactive: 0.213
7,CTTAGTCA,inactive: 0.0123
8,AAGCTACG,inactive: -0.0509
9,GTATTGGA,inactive: 0.0937
10,AAGGTTGG,inactive: 0.0578
11,GATTGAGA,≥ 0.0804
12,CCACTCCG,inactive: -0.188
13,AACTTTAT,inactive: 0.0728
14,AGACAAAG,inactive: 0.0575
15,CAGTAATC,inactive: 0.0654
16,ACGATCCA,inactive: 0.0604
17,TAATAACA,active: 0.319
18,GCCATGTA,active: 0.346
19,ATAGATCC,inactive: 0.0212
20,AGACGAGA,inactive: 0.0336
21,CCTCTAAC,inactive: 0.0582
22,GGCTAAAA,inactive: -0.0887
23,ACTGACAT,inactive: 0.302
24,CGAATGAG,inactive: -0.0787
25,ATTTTACG,inactive: 0.0947
